Literature values in patent publication US20060229299A1, “5ht2c Receptor antagonists in the treatment of schizophrenia” (priority 2003, published 2006).

Assays:
[1] = target: T1, 5-HT2C receptor (Sus scrofa, UniProt K7GSR7); details: pig; cited from earlier work
T1 sequence (K7GSR7 1-457): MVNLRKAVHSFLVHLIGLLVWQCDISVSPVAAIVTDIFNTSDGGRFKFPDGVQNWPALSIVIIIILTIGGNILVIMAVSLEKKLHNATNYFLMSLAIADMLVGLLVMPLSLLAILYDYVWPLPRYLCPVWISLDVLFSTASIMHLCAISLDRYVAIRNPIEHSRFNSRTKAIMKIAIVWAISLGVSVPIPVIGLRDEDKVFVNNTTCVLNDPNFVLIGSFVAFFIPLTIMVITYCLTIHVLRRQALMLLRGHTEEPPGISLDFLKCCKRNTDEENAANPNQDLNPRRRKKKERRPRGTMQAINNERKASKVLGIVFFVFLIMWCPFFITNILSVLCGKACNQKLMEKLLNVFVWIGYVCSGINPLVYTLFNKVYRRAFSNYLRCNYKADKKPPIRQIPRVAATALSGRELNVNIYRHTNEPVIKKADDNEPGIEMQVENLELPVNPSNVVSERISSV

[2] = target: T2, D4 dopamine receptor (Rattus norvegicus, UniProt P30729); details: cited from earlier work
T2 sequence (P30729 1-387): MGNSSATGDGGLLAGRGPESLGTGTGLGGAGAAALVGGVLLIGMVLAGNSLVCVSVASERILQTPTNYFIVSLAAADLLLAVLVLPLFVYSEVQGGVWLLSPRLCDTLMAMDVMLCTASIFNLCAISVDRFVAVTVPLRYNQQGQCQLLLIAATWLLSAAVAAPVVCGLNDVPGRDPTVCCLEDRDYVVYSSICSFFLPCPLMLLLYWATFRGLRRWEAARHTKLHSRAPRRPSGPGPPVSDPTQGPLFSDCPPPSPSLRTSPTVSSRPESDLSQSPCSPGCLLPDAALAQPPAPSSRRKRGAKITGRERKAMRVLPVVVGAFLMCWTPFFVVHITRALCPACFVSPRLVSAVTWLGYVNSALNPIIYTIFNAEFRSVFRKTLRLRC

[3] = target: α1-adrenoceptor; details: human, expressed as KD; cited from earlier work
[4] = target: 5-HT7 receptor (Mus musculus, UniProt P32304); details: cited from earlier work
[5] = target: 5-HT2A receptor (Homo sapiens, UniProt P28223); details: cited from earlier work
[6] = target: T3, 5-HT3 receptor (Mus musculus, UniProt P23979); details: cited from earlier work
T3 sequence (P23979 24-489): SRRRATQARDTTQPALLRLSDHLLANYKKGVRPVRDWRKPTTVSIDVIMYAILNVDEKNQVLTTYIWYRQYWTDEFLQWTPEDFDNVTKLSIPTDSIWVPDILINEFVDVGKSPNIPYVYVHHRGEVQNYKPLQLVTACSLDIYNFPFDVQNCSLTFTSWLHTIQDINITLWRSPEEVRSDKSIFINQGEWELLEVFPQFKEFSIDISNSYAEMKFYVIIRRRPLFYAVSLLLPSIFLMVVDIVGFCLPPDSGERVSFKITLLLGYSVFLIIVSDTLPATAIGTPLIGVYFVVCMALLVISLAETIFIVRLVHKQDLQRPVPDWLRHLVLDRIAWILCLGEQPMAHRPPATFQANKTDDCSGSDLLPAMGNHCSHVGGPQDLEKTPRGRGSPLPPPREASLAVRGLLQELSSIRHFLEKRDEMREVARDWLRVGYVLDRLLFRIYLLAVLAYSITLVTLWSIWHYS

[7] = target: D3 dopamine receptor (Homo sapiens, UniProt P35462); details: cited from earlier work
[8] = target: α1-adrenoceptor; details: species for α1 not given; cited from earlier work
[9] = target: sigma, σ receptor; details: guinea-pig; cited from earlier work

5-HT7 receptor, sequence (P32304 whole entry): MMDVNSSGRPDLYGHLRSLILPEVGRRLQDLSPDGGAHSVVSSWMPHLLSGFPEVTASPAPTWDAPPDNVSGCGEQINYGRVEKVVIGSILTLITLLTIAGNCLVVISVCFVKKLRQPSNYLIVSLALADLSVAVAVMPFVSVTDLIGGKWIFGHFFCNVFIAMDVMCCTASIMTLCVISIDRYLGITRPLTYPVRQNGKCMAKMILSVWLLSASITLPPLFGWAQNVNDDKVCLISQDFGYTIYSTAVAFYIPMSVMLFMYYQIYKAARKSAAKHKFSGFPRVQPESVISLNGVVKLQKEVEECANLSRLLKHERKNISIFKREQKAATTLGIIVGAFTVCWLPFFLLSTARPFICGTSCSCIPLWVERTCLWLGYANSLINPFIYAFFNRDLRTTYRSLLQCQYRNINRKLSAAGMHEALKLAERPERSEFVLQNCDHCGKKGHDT
D3 dopamine receptor, sequence (P35462 whole entry): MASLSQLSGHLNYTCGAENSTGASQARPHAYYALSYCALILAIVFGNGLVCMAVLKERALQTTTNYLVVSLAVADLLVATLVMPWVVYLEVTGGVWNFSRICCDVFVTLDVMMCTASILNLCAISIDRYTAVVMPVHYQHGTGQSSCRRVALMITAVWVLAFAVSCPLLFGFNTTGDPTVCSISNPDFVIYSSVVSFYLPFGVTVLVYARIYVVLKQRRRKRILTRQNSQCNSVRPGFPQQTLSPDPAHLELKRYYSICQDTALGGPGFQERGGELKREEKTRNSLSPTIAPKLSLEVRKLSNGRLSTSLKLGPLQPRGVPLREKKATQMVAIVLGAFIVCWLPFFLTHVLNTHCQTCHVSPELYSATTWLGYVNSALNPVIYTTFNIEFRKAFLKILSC
5-HT2A receptor, sequence (P28223 whole entry): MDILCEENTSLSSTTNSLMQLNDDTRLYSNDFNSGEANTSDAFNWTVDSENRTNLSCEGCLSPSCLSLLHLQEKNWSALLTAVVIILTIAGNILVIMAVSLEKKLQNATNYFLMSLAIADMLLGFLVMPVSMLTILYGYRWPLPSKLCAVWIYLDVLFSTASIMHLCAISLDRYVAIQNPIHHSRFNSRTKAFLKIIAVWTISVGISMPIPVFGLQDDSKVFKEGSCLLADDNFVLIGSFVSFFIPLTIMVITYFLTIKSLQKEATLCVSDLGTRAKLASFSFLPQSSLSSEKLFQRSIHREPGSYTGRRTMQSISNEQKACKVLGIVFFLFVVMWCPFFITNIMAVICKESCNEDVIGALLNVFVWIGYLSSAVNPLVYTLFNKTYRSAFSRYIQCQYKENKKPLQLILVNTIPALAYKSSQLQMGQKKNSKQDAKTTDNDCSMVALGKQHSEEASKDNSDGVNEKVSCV

In the case of `CN1CCN(C2=Nc3cc(Cl)ccc3Nc3ccccc32)CC1` [Clozapine], the “5-HT2C affinity value (−logKi)” value [1] is listed as 7.9^6.

For `OCCN1CCN(CCCN2c3ccccc3Sc3ccc(C(F)(F)F)cc32)CC1` [Fluphenazine], the “D4 affinity value (−logKi)” value [2] is given as 8.0^4 and the “α1 affinity value (−log KD)” value [3] is given as 8.0^16.

For `O=C(CCCN1CCC(O)(c2ccc(Cl)cc2)CC1)c1ccc(F)cc1` [Haloperidol], the “5-HT7 affinity value (−logKi)” value [4] is listed as 6.4^6.

For `COc1cc(C(C)=O)ccc1OCCCN1CCC(c2noc3cc(F)ccc23)CC1` [Iloperidone], the “5-HT2A affinity value (−logKi)” value [5] is given as 8.3^10.

In the case of `Cc1cc2c(s1)Nc1ccccc1N=C2N1CCN(C)CC1` [Olanzapine], the “5-HT3 affinity value (−logKi)” value [6] is given as 7.1^6.

For `Cc1nc2n(c(=O)c1CCN1CCC(c3noc4cc(F)ccc34)CC1)CCCC2` [Risperidone], the “D4 affinity value (−logKi)” value [2] is listed as 7.8^4.

In the case of `OCCOCCN1CCN(C2=Nc3ccccc3Sc3ccccc32)CC1` [Seroquel], the “5-HT7 affinity value (−logKi)” value [4] is listed as 6.5^6, the “D3 affinity value (−logKi)” value [7] is listed as 6.5^6 and the “D4 affinity value (−logKi)” value [2] is listed as 5.9^4. The “α1 affinity value (−logKi)” value [8] was 7.2^6 and the “sigma affinity value (−logKi)” value [9] was <5.3^6.

In the case of `CSc1ccc2c(c1)N(CCC1CCCCN1C)c1ccccc1S2` (stereo not shown) [Thioridazine], the “D4 affinity value (−logKi)” value [2] is listed as 8.4^4.
